{"source": "paper PMC4336329", "about": "(PLoS ONE, 2015)", "note": "The campaign covered roughly 310,000 compounds. About 14,000 (4.5%) showed an effect of 50% or more. Effects have a minus sign here. The list shows a part of the results.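 Note: peak tail current of the secondary pulse compared with the same well before compound.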"}
{"target": "human ether-à-go-go-related gene (hERG) potassium channel (human, UniProt Q12809)", "sequence (Q12809 whole entry, looked up)": "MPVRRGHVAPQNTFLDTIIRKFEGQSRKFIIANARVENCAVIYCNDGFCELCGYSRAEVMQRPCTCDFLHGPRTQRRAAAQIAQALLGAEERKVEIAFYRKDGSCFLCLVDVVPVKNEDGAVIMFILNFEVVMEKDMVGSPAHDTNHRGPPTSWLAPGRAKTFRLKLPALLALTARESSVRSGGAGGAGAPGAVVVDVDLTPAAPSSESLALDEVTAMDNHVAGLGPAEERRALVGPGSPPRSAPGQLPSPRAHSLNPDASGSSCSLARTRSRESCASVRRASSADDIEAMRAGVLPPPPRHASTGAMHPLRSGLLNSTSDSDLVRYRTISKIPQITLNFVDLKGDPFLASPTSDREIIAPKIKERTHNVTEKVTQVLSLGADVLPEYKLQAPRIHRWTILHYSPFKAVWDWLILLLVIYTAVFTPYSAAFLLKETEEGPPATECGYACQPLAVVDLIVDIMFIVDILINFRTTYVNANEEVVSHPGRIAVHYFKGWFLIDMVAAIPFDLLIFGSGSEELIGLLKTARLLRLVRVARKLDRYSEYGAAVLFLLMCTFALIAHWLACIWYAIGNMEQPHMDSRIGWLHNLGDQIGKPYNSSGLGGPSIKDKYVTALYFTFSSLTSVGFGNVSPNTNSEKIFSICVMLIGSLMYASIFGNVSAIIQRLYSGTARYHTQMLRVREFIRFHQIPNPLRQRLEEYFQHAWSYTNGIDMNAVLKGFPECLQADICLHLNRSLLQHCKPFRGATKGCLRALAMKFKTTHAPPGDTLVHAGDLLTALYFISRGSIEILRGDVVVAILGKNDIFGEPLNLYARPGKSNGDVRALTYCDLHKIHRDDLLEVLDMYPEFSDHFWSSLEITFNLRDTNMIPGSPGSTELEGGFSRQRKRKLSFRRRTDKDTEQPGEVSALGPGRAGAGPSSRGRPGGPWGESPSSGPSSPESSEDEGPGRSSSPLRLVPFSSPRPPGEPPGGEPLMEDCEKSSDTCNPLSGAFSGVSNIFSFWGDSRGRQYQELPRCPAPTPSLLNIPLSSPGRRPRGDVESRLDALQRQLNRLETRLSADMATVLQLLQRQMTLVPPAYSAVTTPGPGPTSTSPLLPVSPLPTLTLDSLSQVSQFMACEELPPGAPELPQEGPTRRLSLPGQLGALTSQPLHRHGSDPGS", "test": "primary screen, population patch clamp on CHO cells stably expressing hERG", "units": {"hERG current change (%, negative = inhibition) at 10uM": "%"}}
{"smiles": "O=C(NNc1cc(N2CCOCC2)nc(N2CCOCC2)n1)c1ccc(Cl)cc1Cl", "hERG current change (%, negative = inhibition) at 10uM": 3.39}
{"smiles": "O=[N+]([O-])c1c(C(Cl)Cl)nn(-c2ccc(Cl)cc2)c1N1CCCCC1", "hERG current change (%, negative = inhibition) at 10uM": 5.67}
{"smiles": "C=CCn1c(SCc2ccc3nonc3c2)nnc1-c1cccs1", "hERG current change (%, negative = inhibition) at 10uM": -68.7}
{"smiles": "Nc1cc(N)nc(SCc2nnnn2-c2ccc(Cl)cc2)n1", "hERG current change (%, negative = inhibition) at 10uM": 0.246}
{"smiles": "CC(CCc1ccccc1)NC(=O)COC(=O)c1cccc(N(C)C)c1", "note": "(centres unmarked)", "hERG current change (%, negative = inhibition) at 10uM": -19.1}
{"smiles": "COc1ccc(NC(=O)c2cccnc2)c([N+](=O)[O-])c1", "hERG current change (%, negative = inhibition) at 10uM": 24}
{"smiles": "O=C(CSc1nnc(CNC(=O)c2cccs2)o1)Nc1ccccc1C(F)(F)F", "hERG current change (%, negative = inhibition) at 10uM": -21.2}
{"smiles": "O=C(O)c1ccc(-n2nc(C(F)(F)F)c3c2CCCC3)cc1", "hERG current change (%, negative = inhibition) at 10uM": 21.1}
{"smiles": "COCCNC(=O)C(c1ccc(F)cc1)N(C(=O)CCC(=O)Nc1nccs1)c1ccc(C)cc1", "note": "(centres unmarked)", "hERG current change (%, negative = inhibition) at 10uM": -14.1}
{"smiles": "CCOC(=O)c1c(CSCc2ccccc2)oc2ccc(O)c(CN(C)C)c12.Cl", "hERG current change (%, negative = inhibition) at 10uM": -73.4}
{"smiles": "CCCC1=C(C(=O)OCC)C(c2ccccc2OC)NC(=O)N1", "note": "(centres unmarked)", "hERG current change (%, negative = inhibition) at 10uM": 9.13}
{"smiles": "CC1(C)CC(=O)C2=C(C1)N(c1ccc(F)cc1)C(N)=C(C#N)C2c1cccs1", "note": "(centres unmarked)", "hERG current change (%, negative = inhibition) at 10uM": -2.09}
{"smiles": "O=C1Nc2ccccc2/C1=N\\N1CCOCC1", "hERG current change (%, negative = inhibition) at 10uM": 2.95}
{"smiles": "CCC(=O)NC(c1cc(Cl)c2cccnc2c1O)C1CC1", "note": "(centres unmarked)", "hERG current change (%, negative = inhibition) at 10uM": -4.46}
{"smiles": "Cc1ccc(N2CCN(/N=C/c3ccccc3)CC2)cc1", "hERG current change (%, negative = inhibition) at 10uM": 14}
{"smiles": "Cc1ccn(-c2cccc(-n3ccc(C)n3)n2)n1", "hERG current change (%, negative = inhibition) at 10uM": 9.59}
{"smiles": "COCCn1nnnc1CN1CCN(c2cccc(C(F)(F)F)c2)CC1", "hERG current change (%, negative = inhibition) at 10uM": -9.2}
{"smiles": "Cc1csc2c(SCC(=O)NNC(=O)C(Cl)Cl)ncnc12", "hERG current change (%, negative = inhibition) at 10uM": 0.752}
{"smiles": "O=S(=O)(c1ccc(F)c(F)c1)N1CCN(c2ccccn2)CC1", "hERG current change (%, negative = inhibition) at 10uM": 1.99}
{"smiles": "CC1CCN(CC(=O)Nc2ccc(S(=O)(=O)NC3CC3)cc2)CC1.O=C(O)C(=O)O", "hERG current change (%, negative = inhibition) at 10uM": -15.4}
{"smiles": "C=CCn1c(=O)n(C(=O)OCC)c2cc(Br)ccc21", "hERG current change (%, negative = inhibition) at 10uM": -50.2}
{"smiles": "COc1ccc(C(=O)Nn2cnc3ccccc3c2=O)c(OC)c1", "hERG current change (%, negative = inhibition) at 10uM": 8.59}
{"smiles": "CCc1ccc(NC(=O)CCn2cccc2)cc1", "hERG current change (%, negative = inhibition) at 10uM": 5.24}
{"smiles": "O=c1ccc(S(=O)(=O)N2CCCC2)cn1Cc1ccc(Cl)cc1Cl", "hERG current change (%, negative = inhibition) at 10uM": -14.2}
{"smiles": "O=C(Nc1ccccc1)OCc1cnc(Cl)s1", "hERG current change (%, negative = inhibition) at 10uM": 14.7}
{"smiles": "COc1ccc(C(=O)NCC(=O)OCC(=O)Nc2ncc(Cl)cc2Cl)cc1[N+](=O)[O-]", "hERG current change (%, negative = inhibition) at 10uM": -37.3}
{"smiles": "CN(Cc1ccccc1)C(=O)c1ccc(NC(=O)c2ccccc2)cc1", "hERG current change (%, negative = inhibition) at 10uM": -59.9}
{"smiles": "C/C(=C\\c1ccccc1)C(=O)c1c(C)cc(C)[nH]c1=O", "hERG current change (%, negative = inhibition) at 10uM": 4.75}
{"smiles": "CCOC(=O)CCCNC(=O)CSc1nc2ccc(OCC)cc2[nH]1", "hERG current change (%, negative = inhibition) at 10uM": 16.1}
{"smiles": "CCOCCCNC(=O)CN(c1cc([N+](=O)[O-])ccc1OC)S(C)(=O)=O", "hERG current change (%, negative = inhibition) at 10uM": 24.3}
{"smiles": "Cc1cccc(NC(=O)CN2CCCCCC2)c1", "hERG current change (%, negative = inhibition) at 10uM": 7.69}
{"smiles": "NS(=O)(=O)c1cccc(NC(=O)COC(=O)c2cc(Cl)ccc2[N+](=O)[O-])c1", "hERG current change (%, negative = inhibition) at 10uM": 2.71}
{"smiles": "O=C(Nc1cccc(S(=O)(=O)N2CCOCC2)c1)C1CCCC1", "hERG current change (%, negative = inhibition) at 10uM": -4.03}
{"smiles": "CCc1ccccc1N(CC(=O)N/N=C/c1ccc(OC(=O)OC)c(OC)c1)S(C)(=O)=O", "hERG current change (%, negative = inhibition) at 10uM": -5.15}
{"smiles": "COc1ccc(N(C)C(=O)c2onc3c2CCCC3)cc1", "hERG current change (%, negative = inhibition) at 10uM": 17.4}
{"smiles": "CCN(CC)CC(=O)NC1CCCc2c1cnn2-c1cc(F)cc(F)c1", "note": "(centres unmarked)", "hERG current change (%, negative = inhibition) at 10uM": -9.77}
{"smiles": "Cc1cccc(Cc2cnc(N3C(=N)SC(c4ccccc4)C3=O)s2)c1", "note": "(centres unmarked)", "hERG current change (%, negative = inhibition) at 10uM": 7.98}
{"smiles": "Cc1ccc(C(=O)C2=C(O)C(=O)N(Cc3ccco3)C2c2cccc(Br)c2)o1", "note": "(centres unmarked)", "hERG current change (%, negative = inhibition) at 10uM": 12.5}
{"smiles": "CC(=O)N/C(=N/c1nc(C)cc(C)n1)Nc1cccc(C)c1", "hERG current change (%, negative = inhibition) at 10uM": -21.9}
{"smiles": "CCCCCC(=O)Nc1ccc(S(=O)(=O)Nc2ccc(Cl)nn2)cc1.Cl", "hERG current change (%, negative = inhibition) at 10uM": 12.9}
{"smiles": "O=C(Oc1cccc(NC(=O)c2cccs2)c1)c1cccc(S(=O)(=O)N2CCCC2)c1", "hERG current change (%, negative = inhibition) at 10uM": -7.91}
{"smiles": "CC(=O)/C=C\\c1ccc(OC(=O)c2cccnc2)cc1", "hERG current change (%, negative = inhibition) at 10uM": 21.1}
{"smiles": "CC1(C)CC(=O)C=C(Nc2cccc(F)c2)C1", "hERG current change (%, negative = inhibition) at 10uM": 17}
{"smiles": "CCc1ccc(CN(C)Cc2nc(Cc3ccccc3)no2)nc1", "hERG current change (%, negative = inhibition) at 10uM": -13.5}
